# Measured values taken from the supplement of paper PMC4604168 (melanoma cell lines).
# The other results are listed elsewhere or left out. Repeats are few or missing, and single values can be far off.
# Test system: 501Mel
# Experiment: cell count relative to DMSO control; melanoma cells; higher = more viable cells
# Conditions: library dose: low library concentration; 72 h
# 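Further: cell number obtained by counting DAPI-stained nuclei in high-throughput microscope images with image analysis software, screen run in 1,536-well plates.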
row,Structure (SMILES),cell count [%]
1,"Cc1cc(SCc2sc(-c3ccc(C(F)(F)F)c(F)c3)nc2C)ccc1OCC(=O)O + Oc1cc(-c2nc(-c3ccccc3)[nH]c2-c2ccncc2)ccc1Cl [L779450] (first compound 2 µM, partner dose 0.2 µM)",69.3
2,"O=S(=O)(c1ccccc1)N(CC(F)(F)F)c1ccc(C(O)(C(F)(F)F)C(F)(F)F)cc1 + Cc1cc(SCc2sc(-c3ccc(C(F)(F)F)c(F)c3)nc2C)ccc1OCC(=O)O [GW0742] (first compound 1.4 µM, partner dose 2 µM)",82.6
3,"COC(=O)c1sccc1S(=O)(=O)Nc1ccc(Nc2ccccc2)cc1OC + C/C(O)=C(\C#N)C(=O)Nc1cc(Br)ccc1Br [LFM-A13] (first compound 1 µM, partner dose 2 µM)",131
4,"Cc1ccc(Nc2nccc(N(C)c3ccc4c(C)n(C)nc4c3)n2)cc1S(N)(=O)=O [Pazopanib] + N.N.[Cl][Pt][Cl] [cisplatin] (first compound 0.4 µM, partner dose 1.6 µM)",153
5,"COc1cc(Nc2ncc(F)c(Nc3ccc4c(n3)NC(=O)C(C)(C)O4)n2)cc(OC)c1OC [Tamatinib] + O=C(Oc1ccc([N+](=O)[O-])cc1)N1CCC(C(O)(c2ccc3c(c2)OCO3)c2ccc3c(c2)OCO3)CC1 [JZL184] (first compound 0.4 µM, partner dose 1 µM)",93.8

# Test system: A101D
# Experiment: as above
# Conditions: library dose: low library concentration; 72 h
row,Structure (SMILES),cell count [%]
1,"Cc1cc(N2CCOCC2)cc2[nH]c(-c3c(NC[C@@H](O)c4cccc(Cl)c4)cc[nH]c3=O)nc12 + O=C(Oc1ccc([N+](=O)[O-])cc1)N1CCC(C(O)(c2ccc3c(c2)OCO3)c2ccc3c(c2)OCO3)CC1 [JZL184] (first compound 0.2 µM, partner dose 1 µM)",104
2,"COc1cc2c(Oc3ccc4[nH]c(C)cc4c3F)ncnc2cc1OCCCN1CCCC1 [cediranib] + O=C(Oc1ccc([N+](=O)[O-])cc1)N1CCC(C(O)(c2ccc3c(c2)OCO3)c2ccc3c(c2)OCO3)CC1 [JZL184] (first compound 0.4 µM, partner dose 1 µM)",115
3,"CCN(CC)CCNC(=O)c1c(C)[nH]c(/C=C2\C(=O)Nc3ccc(F)cc32)c1C [sunitinib] + C[As](C)SC[C@H](NC(=O)CC[C@H](N)C(=O)O)C(=O)NCC(=O)O [Darinaparsin] (first compound 0.4 µM, partner dose 0.4 µM)",94.1
4,"COc1ccc2c(c1)CCC1C2CCC2(C)C(NCCCCCCN3C(=O)C=CC3=O)CCC12 (stereo not given) + C/C(O)=C(\C#N)C(=O)Nc1cc(Br)ccc1Br [LFM-A13] (first compound 0.4 µM, partner dose 2 µM)",102
5,"COc1cc2c(Oc3ccc4[nH]c(C)cc4c3F)ncnc2cc1OCCCN1CCCC1 [cediranib] + Cc1cc(SCc2sc(-c3ccc(C(F)(F)F)c(F)c3)nc2C)ccc1OCC(=O)O [GW0742] (first compound 0.4 µM, partner dose 2 µM)",125
6,"Cn1cncc1[C@@](N)(c1ccc(Cl)cc1)c1ccc2c(c1)c(-c1cccc(Cl)c1)cc(=O)n2C [tipifarnib] + Cc1cc(SCc2sc(-c3ccc(C(F)(F)F)c(F)c3)nc2C)ccc1OCC(=O)O [GW0742] (first compound 0.01 µM, partner dose 2 µM)",104
7,"O=C(Nc1ccccc1)c1cc([N+](=O)[O-])ccc1Cl + Cc1cc(SCc2sc(-c3ccc(C(F)(F)F)c(F)c3)nc2C)ccc1OCC(=O)O [GW0742] (first compound 2 µM, partner dose 2 µM)",107
8,"O=C(Oc1ccc([N+](=O)[O-])cc1)N1CCC(C(O)(c2ccc3c(c2)OCO3)c2ccc3c(c2)OCO3)CC1 + O=c1cc(-c2cccc3c2Sc2ccccc2S3)oc(N2CCOCC2)c1 [KU55933] (first compound 1 µM, partner dose 1 µM)",104
9,"C[C@]1(c2nc3c(C(N)=O)cccc3[nH]2)CCCN1 [Veliparib] + C/C(O)=C(\C#N)C(=O)Nc1cc(Br)ccc1Br [LFM-A13] (first compound 1.4 µM, partner dose 2 µM)",93.6
10,"O=C(Nc1ccccc1)c1cc([N+](=O)[O-])ccc1Cl + O=C(Oc1ccc([N+](=O)[O-])cc1)N1CCC(C(O)(c2ccc3c(c2)OCO3)c2ccc3c(c2)OCO3)CC1 [JZL184] (first compound 2 µM, partner dose 1 µM)",105
